Assay results as given in PubChem BioAssay AID488969 (Vanderbilt High Throughput Screening Facility, 2010).
The full ranking holds about 110,000 compounds; the median of “z-score” is about -0.1, and the highest 2% start at about 2. The list shows a part of the results. Active and inactive are the calls of the source.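 The calls were made as follows: active = z-score in the third read window above 3 or below -3; inactive = the rest.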

Target: Metabotropic glutamate receptor 8 (Rattus norvegicus) (UniProt P70579)
Sequence of UniProt P70579 (P70579 whole entry, looked up): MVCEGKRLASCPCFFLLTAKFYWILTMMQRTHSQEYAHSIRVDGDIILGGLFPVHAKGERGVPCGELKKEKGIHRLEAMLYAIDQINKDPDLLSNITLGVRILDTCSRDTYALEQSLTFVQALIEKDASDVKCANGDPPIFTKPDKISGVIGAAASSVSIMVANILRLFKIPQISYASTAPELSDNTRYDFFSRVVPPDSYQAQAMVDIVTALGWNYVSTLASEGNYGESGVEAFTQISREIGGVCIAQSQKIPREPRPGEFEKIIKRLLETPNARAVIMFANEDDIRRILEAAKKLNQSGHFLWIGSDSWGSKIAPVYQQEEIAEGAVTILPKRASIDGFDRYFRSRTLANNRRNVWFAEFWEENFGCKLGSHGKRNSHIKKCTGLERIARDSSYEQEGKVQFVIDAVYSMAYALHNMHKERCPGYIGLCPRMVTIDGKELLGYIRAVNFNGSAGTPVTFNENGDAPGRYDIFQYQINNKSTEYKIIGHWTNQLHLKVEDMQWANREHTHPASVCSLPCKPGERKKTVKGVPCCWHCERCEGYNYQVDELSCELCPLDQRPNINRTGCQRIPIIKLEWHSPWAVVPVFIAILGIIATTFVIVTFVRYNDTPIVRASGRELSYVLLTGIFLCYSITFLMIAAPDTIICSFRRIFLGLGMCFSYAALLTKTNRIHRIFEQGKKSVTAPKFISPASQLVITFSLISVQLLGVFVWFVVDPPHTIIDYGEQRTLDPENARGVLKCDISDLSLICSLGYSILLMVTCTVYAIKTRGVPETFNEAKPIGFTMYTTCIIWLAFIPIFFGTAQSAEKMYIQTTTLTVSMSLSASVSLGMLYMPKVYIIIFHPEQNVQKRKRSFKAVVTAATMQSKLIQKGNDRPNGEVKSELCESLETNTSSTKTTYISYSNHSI
Experiment: rat mGluR8 modulators via GIRK flux, primary screen, cell-based, thallium flux, HTS (AID 488969)
Settings: HEK293 rat mGluR8, GIRK (G protein-gated inwardly rectifying potassium channel) thallium flux, FluoZin2; at 10 µM; stronger effect = higher value; submaximal glutamate (EC20) added with thallium

| Structure (SMILES) | z-score |
| --- | --- |
| CS(=O)(=O)N1CCN(c2ccccc2NC(=O)c2cccc3ccccc23)CC1 | -0.227 |
| O=C(Nc1ccccc1)N1CCCC(c2nc(-c3ccc(F)cc3)no2)C1 (configuration not stated) | -0.45 |
| O=C(O)[C@H]1CCCC[C@H]1C(=O)Nc1cc([N+](=O)[O-])ccc1F | -0.728 |
| Cc1ccc(OCC(=O)N/N=C2/SCC(=O)N2Cc2ccccc2)cc1 | -0.163 |
| O=C(Nc1ccc(Cl)cn1)Nc1ccccc1Cl | -0.18 |
| O=c1c(-c2cccc3ccccc23)[n+]([O-])c2ccccc2n1O | 1.08 |
| O=C(Nc1ccccc1N1CCCCC1)c1ccc(-c2cccc(Cl)c2)o1 | -0.572 |
| COc1ccccc1Oc1coc2cc(O)ccc2c1=O | -0.815 |
| Cc1c(Cl)c(C(=O)NNC(=S)NCc2ccco2)nn1C | 0.977 |
| CSCCC(Nc1ccc(S(=O)(=O)N2CCOCC2)cc1[N+](=O)[O-])C(=O)OCC(=O)N(C(C)C)C(C)C (configuration not stated) | -0.22 |
| CN1/C(=C\C(=S)NC(=O)c2cccc(Br)c2)C(C)(C)c2ccccc21 | -0.0589 |
| CN1c2ccsc2C(O)=C(C(=O)Nc2ccccc2)S1(=O)=O | -0.00654 |
| Cc1ccc(Cn2cnc3c(nnn3Cc3ccc(Cl)cc3)c2=O)cc1 | 0.0536 |
| CCN(CC)c1ccc(CC(=O)NC(C)Cc2ccccc2)cc1 (configuration not stated) | -0.346 |
| Cc1cccc(Oc2ccccc2N)c1 | -0.0133 |
| Cc1ccc(NC(=O)Cn2c(O)c(N=NC(=O)c3cc4ccccc4cc3O)c3ccccc32)cc1 | -0.306 |
| OC(COCc1cccs1)CN1CCN(c2ccccc2Cl)CC1 (configuration not stated) | -0.266 |
| COC(=O)CNC(=O)c1c(-c2c(Cl)cccc2Cl)noc1C | -0.207 |
| CCc1cccc(OCCn2ccnc2)c1 | -0.244 |
| Cc1nc2ccc(NC(=O)c3ccc(Cl)c(NC(=O)c4cccs4)c3)cc2s1 | -0.465 |
| Cc1nn(Cc2cccc(C(=O)Nc3ccn(Cc4c(F)c(F)cc(F)c4F)n3)c2)c(C)c1[N+](=O)[O-] | -1.37 |
| CCCCn1nnnc1SCC(=O)Nc1ccc(F)cc1 | -0.316 |
| O=C(NC(=S)Nc1ccc(N2CCCCC2)c(Cl)c1)c1cccs1 | active: 8.72 |
| Cc1cc(N2CCCCC2)c(F)cc1[N+](=O)[O-] | 0.131 |

| Structure (SMILES) | z-score |
| --- | --- |
| CC1CN(Cc2ccc(Cl)cc2Cl)CC(C)O1 (configuration not stated) | -0.415 |
| COc1ccc(Cl)cc1C(=O)N(Cc1nc(-c2cccc(C)c2)no1)C(C)C | -0.251 |
| Nc1nnc(Sc2ccc(Cl)cc2[N+](=O)[O-])s1 | 0.0654 |
| CC1(C)Cc2c(ccc3ccccc23)/C(=C/C(=O)N2CCCCC2)N1 | 0.884 |
| CCOC(=O)c1nnc(-c2ccc(C)cc2)nc1Sc1cccc(Cl)c1 | -0.0701 |
| CCc1nnc(NC(=O)CCN2C(=O)c3ccccc3C2=O)s1 | 0.727 |
| O=C(CSc1nc2ccccc2[nH]1)NC1CCS(=O)(=O)C1 (configuration not stated) | 0.148 |
| Cc1ccc2c(c1)cc(CN(CCc1ccccc1)C(=O)N1CCOCC1)c1nnnn12 | -0.223 |
| O=C(CSc1nnc(Cc2cccs2)n1-c1ccccc1)NCc1ccc2c(c1)OCO2 | -0.498 |
| O=C1CC(c2cccc(Cl)c2)Cc2nc(N3CCOCC3)ncc21 (configuration not stated) | -0.835 |
| Cc1cccc(C(=O)Oc2ccccc2/C=N/NC(=O)c2ccc(NC(=O)C(C)(C)C)cc2)c1 | -0.83 |
| C=CCNC(=O)c1onc(CSc2cccc(C)c2)c1C(=O)O | -0.196 |
| O=C(CCC(=O)N1CCN(S(=O)(=O)c2ccccc2)CC1)c1cccs1 | 0.331 |
| CCOC(=O)C1CCCN(C(=S)Nc2cc(C)cc(C)c2)C1 (configuration not stated) | 0.031 |
| COc1cc(/C=N\Nc2nc3ccccc3[nH]2)cc(OC)c1OC | -0.286 |
| O=C(NCc1ccc(Cl)cc1)c1cnccn1 | -0.0849 |
| Oc1ccc(C=NCC2COc3ccccc3O2)cc1 (configuration not stated) | -0.00244 |
| Cc1ccc(/C=N/N2C(=S)SC(C)(C)C2N(O)C(=O)Nc2ccc([N+](=O)[O-])cc2)cc1 (configuration not stated) | -0.809 |
| CC(=O)N1CCCc2cc(S(=O)(=O)CCC(=O)N3CCN(c4cccc(C)c4)C(C)C3)ccc21 (configuration not stated) | -0.267 |
| Cc1c(Br)cc(C(=O)N2CCN(CCO)CC2)c(C)c1C | -0.0112 |
| COC(=O)c1ccc2c(=O)n(C3CCCCC3)c(SCC#N)nc2c1 | active: 3.63 |
| COc1ccccc1S(=O)(=O)Cc1ccc(C(=O)NCc2cccnc2)o1 | -0.0398 |
| O=C(NC1=NCCS1)c1sc2ccccc2c1Cl | -0.198 |
| COc1cccc(-c2cc(C(=O)NN3CCOCC3)c3ccccc3n2)c1 | -0.134 |

| Structure (SMILES) | z-score |
| --- | --- |
| Cn1c(=O)n(Cc2ccc(Cl)cc2)c2ccccc21 | -0.403 |
| Fc1ccc(CN2CCCCCCC2)cc1 | 0.111 |
| Cc1cc(NC(=O)c2cc(CC(C)C)on2)n(-c2ccccc2)n1 | 0.79 |
| O=C(CSc1ccccc1)Nc1cccc(S(=O)(=O)N2CCCC2)c1 | 0.307 |
| O=C(COc1ccc(Cl)cc1)NCc1nnc2c3ccccc3c(-c3ccccc3)nn12 | -0.373 |
| CCOC(OCC)P(=O)(C(C)C)C(C)C | 0.537 |
| CCOC(=O)c1sc2nc3c(SCCC#N)cc(C(=O)c4cc(F)ccc4O)cn3c(=O)c2c1C | -0.261 |
| O=C(Nc1ccc2c(c1)CCC2)c1ccc(F)cc1 | 0.17 |
| CC(/C=C/c1ccco1)=N\NC(=O)c1cccnc1 | -0.148 |
| Cc1nc(-c2ccccc2O)n(-c2ccccc2)n1 | 0.0312 |
| Clc1ccc(Cl)c(OCc2cc(-c3ccccc3Cl)on2)c1 | -1.04 |
| COc1ccc(NC2=NC(=S)N(c3cccc(C)c3)C23CCCCC3)cc1 | 1.22 |
| COCCCNCCCOc1ccc(C(C)(C)c2ccccc2)cc1 | 0.152 |
| Cc1nc2ccc(C(=O)O)cc2nc1C | -0.172 |
| Cc1ccc(-n2ncc(C(=O)NCc3ccc4c(c3)OCO4)c2NC(=O)c2ccco2)cc1C | 0.00765 |
| Cc1cc(/C=C2/C(=N)N3C(c4ccccc4)=CSC3=NC2=O)c(C)n1-c1ccccc1 | 0.0803 |
| O=[N+]([O-])c1ccc(N2CCOCC2)nc1 | -0.261 |
| CCOc1ccc(NCC(=O)Nc2ccc(C)cc2C)cc1 | -0.135 |
| CCC(C)[C@H](NC(=O)NCCCn1ccnc1)C(=O)OC (some centres not stated) | -0.23 |
| Cc1cc(=O)[nH]c(-c2ccccc2)n1 | -0.314 |
| CCOC(=O)C1=C(CSc2nc(C)cc(C)c2C#N)OC(N)=C(C#N)C1c1ccccc1 (configuration not stated) | -0.479 |
| Cc1cc2nnc(SCc3ccccc3)n2c(N)n1 | -0.298 |
| CCOC(=O)c1sc(NC(=O)COC(=O)c2ccco2)nc1C | 0.0458 |
| COc1ccc(Cl)cc1NC(=O)CSc1nnc(CN2CCOCC2)n1-c1ccc(Cl)cc1 | -0.416 |
